# PubChem BioAssay AID686971 (National Center for Advancing Translational Sciences (NCATS), 2013)
# The campaign covered roughly 360,000 compounds. About 7,500 (2.1%) were called active. The inconclusive results got no clear call from the source; some entries with a clear call stand among them for comparison. The call rests on the fitted dose curve; in most records, active means well fitted cell-killing curve with a large enough effect; inconclusive means small, poorly fitted or top-dose-only effect, or effect the other way, or another doubt; inactive means no such curve, though single readings can be large or run the other way. Potencies of inconclusive entries are left out as doubtful fits. More than one record can exist for a structure, and the calls need not agree.
# Experiment: qHTS for induction of synthetic lethality in tumor cells producing 2HG: qHTS for the HT-1080-IDH1KD cell line;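 on activity, negative = toxicity: 0% = DMSO wells and -100% = cell-free medium wells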
# Settings: HT-1080 IDH1 knockdown viability, ATP luminescence, 48 h; activity, negative = toxicity: at 46.1 µM (top of the series) unless noted
# Outline: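 Luminescent ATP read-out (CellTiter-Glo, 10 min at room temperature) after 48 h compound exposure at 37 °C gave viability of IDH1-knockdown HT-1080 cells. Activity was normalised to DMSO and cell-free wells, then fitted as concentration-response curves.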
# Potency means the concentration at half of the fitted maximal effect; tags describe the fitted curve by direction and shape.
Compound,Potency,"activity, negative = toxicity"
CCOC(=O)C(C)(C)NS(=O)(=O)c1ccc(Cl)c([N+](=O)[O-])c1,inactive,–
COc1cccc(C(=O)NCC2CCN(c3ccc(S(=O)(=O)N4CCOCC4)cc3)CC2)c1,inactive,–
Nc1nc(Br)c2c(F)cccc2c1-c1ccc(Cl)cc1,"inconclusive [cytotoxic, single point]",–
Cc1csc(NC(=O)c2ccc3ccccc3n2)n1,–,inconclusive: -38.8% [cytotoxic]
Cc1cc(-c2nc3cc(F)ccc3s2)ccc1N,inactive,–
COc1ccc(CC(=O)n2nc(-c3ccc(Cl)cc3)nc2NCc2ccco2)cc1,"inconclusive [cytotoxic, partial curve]",–
O=C(NCc1ccccn1)C1CC(c2ccc(Cl)c(Cl)c2)=NO1 (configuration not stated),"inconclusive [cytotoxic, single point]",–
COc1ccc(CCN(Cc2nc3ccccc3c(=O)[nH]2)C(=O)C2CC2)cc1,inactive,–
O=C(Nc1ccccc1Br)c1ccccc1-c1ccccc1,"inconclusive [cytotoxic, partial curve]",–
COc1ccc(C(=O)N/N=C\c2coc3ccc(C)cc3c2=O)cc1,–,inconclusive: -32% [cytotoxic]
OC[C@H]1O[C@H](c2nc(-c3nc(-c4cccc(-n5cccc5)c4)no3)cs2)C[C@@H]1O,"inconclusive [cytotoxic, single point]",–
Cc1ccc(S(=O)(=O)N(CCCN(C)C)Cc2ccc3c(c2)OCO3)cc1,"inconclusive [cytotoxic, partial curve, poor fit]",–
Cc1cc(Br)cc(C)c1OCCCCN(C)C,"inconclusive [cytotoxic, single point]",–
COc1ccc(C2c3c(ncn(CCN4CCOCC4)c3=N)Oc3ccc4ccccc4c32)cc1OC (configuration not stated),active: 15.8 µM,–
Cc1cccc2cc(CN(CCN(C)C)C(=S)Nc3ccccc3)c(=O)[nH]c12,inactive,–
COc1cccc(CN(C(=O)/C=C/c2ccco2)C2CCS(=O)(=O)C2)c1 (configuration not stated),inactive,–
COc1ccc(CNCC(=O)Nc2ccccc2-n2cccc2)cc1,"inconclusive [cytotoxic, partial curve]",–
O=C(COc1ccc(Cl)cc1Cl)Nc1cccc(-c2ccc(N3CCOCC3)nn2)c1,inactive,–
FC(F)(F)c1cc(CO[C@@H]2CCCN[C@@H]2c2ccccc2)cc(C(F)(F)F)c1,active: 23.1 µM,–
Cc1cc(C)nc(Sc2ncnc(N)c2[N+](=O)[O-])n1,"inconclusive [cytotoxic, single point]",–
COc1cc(OC)c(C(=O)C=Cc2ccc(OC)c(OC)c2)c(OC)c1,"inconclusive [cytotoxic, partial curve]",–
O=c1c2ccccc2nnn1CSc1nc2ccccc2c(=O)n1CCCO,"inconclusive [cytotoxic, single point]",–
Cc1ccc(Nc2nc(N)nc(N)c2N=O)cc1C,inactive,–
CC(C)(C)c1cc(CP(=O)(c2ccccc2)c2ccccc2)cc(C(C)(C)C)c1O,"inconclusive [cytotoxic, single point]",–
COc1cc(/C=N/Nc2ccc(F)cc2F)cc(OC)c1O,"inconclusive [cytotoxic, partial curve]",–
O=C(NC1CCCCCC1)c1ccc(Br)o1,inactive,–

Compound,Potency,"activity, negative = toxicity"
O=C(CSc1nc(-c2ccco2)cc(C(F)(F)F)n1)NCc1cccs1,–,inconclusive: -33.6% [cytotoxic]
CC(C)C(c1nnnn1Cc1ccco1)N1CCN(c2nc3ccccc3s2)CC1 (configuration not stated),"inconclusive [cytotoxic, single point]",–
CCCN1CCN(c2ncnc3c2nnn3Cc2ccccc2)CC1,"inconclusive [cytotoxic, single point]",–
Cc1ccc(-c2nc3cnccn3c2Nc2c(C)cccc2C)o1,inactive,–
O=C(NCc1ccccc1)c1ccc(-c2cn[nH]c2)c2ccoc12,"inconclusive [cytotoxic, single point]",–
CC(=O)c1cccc(Nc2nc(-c3sc(C)nc3C)cs2)c1,"inconclusive [cytotoxic, partial curve]",–
O=C(O)c1cc(OCc2ccccc2)cc(OCc2ccccc2)c1,inactive,–
Cc1c(Cc2ccccc2)sc(NC(=O)/C=C/c2cccc3ccccc23)c1C(N)=O,active: 32.6 µM,–
COc1cc(/C=C/C(=O)O)cc(S(=O)(=O)NCCCC(=O)O)c1OC,inactive,–
O=C(Nc1cccnc1)c1ccco1,"inconclusive [cytotoxic, single point]",–
CCN(CC(=O)Nc1ccc2c(c1)OCCO2)C(=O)c1cc(=O)[nH]c2ccccc12,inactive,–
O=C1OCC2=C1C(c1ccc(Cl)cc1)c1cc3c(cc1O2)OCO3 (configuration not stated),"inconclusive [cytotoxic, partial curve]",–
Cc1ccc(S(=O)(=O)Nc2ccc(NC(=O)c3cccnc3)cc2)cc1,inactive,–
C#CC(=O)N(c1cccc(OC)c1)C(C(=O)NC1CCCC1)c1cccs1 (configuration not stated),active: 39.8 µM,–
COCCNCC(=O)C12CC3CC(CC(C3)C1)C2,"inconclusive [cytotoxic, partial curve]",–
CNc1ccccc1C(C)(C)c1cc(-c2cccc(Br)c2)no1,"inconclusive [cytotoxic, single point]",–
CC(NC(=O)c1c(N)[nH]c(C(=O)c2ccccc2)c1-c1ccccc1Br)c1cccc2ccccc12 (configuration not stated),"inconclusive [cytotoxic, single point]",–
Cc1cc(Oc2ccccc2)nc(SCC(N)=O)n1,inactive,–
CC(C(=O)Nc1ccc(O)c(C(=O)O)c1)N1C(=O)/C(=C/c2cccs2)SC1=S (configuration not stated),"inconclusive [cytotoxic, single point]",–
C=CCN1C(=O)c2ccc(C(=O)N(C)CC(=O)Nc3cccc(F)c3)cc2C1=O,inactive,–
CN(C)CC/C=C1/c2ccccc2Sc2c(O)cc(Cl)cc21,active: 23.1 µM,–
NC1=NC(=O)/C(=C/c2cn(Cc3ccccc3)c3ccccc23)S1,"inconclusive [cytotoxic, single point]",–
O=C(NCc1nc2ccccc2[nH]1)C1=C[C@@H](c2ccc(Br)cc2)C[C@@H](OCCCCO)O1,inactive,–
Cc1ccc(OCCCn2cc(C#N)c3ccccc32)cc1,inactive,–
CC1=Nc2cc(C(=O)NCCCOC(C)C)ccc2Sc2ccccc21,active: 8.2 µM,–
COc1ccc2nc(NCc3ccccc3)[nH]c2c1,"inconclusive [cytotoxic, single point]",–

Compound,Potency,"activity, negative = toxicity"
Cc1cc2c(cc1C)C(c1cccc([N+](=O)[O-])c1)CC(=O)N2 (configuration not stated),"inconclusive [cytotoxic, partial curve]",–
O=C(NNc1ccccc1F)c1sccc1Cl,"inconclusive [cytotoxic, full curve]",–
FC(F)c1nc2nc(Cl)c(Cl)nc2[nH]1,"inconclusive [cytotoxic, single point]",–
Cn1nc(C(=O)OCc2ccc(F)cc2)c2ccccc2c1=O,inactive,–
Cc1c(N)cccc1N,inactive,–
OC(CN=c1sc2ccccc2n1CC(O)COc1ccccc1)COc1ccccc1 (configuration not stated),"inconclusive [cytotoxic, single point]",–
CCOc1ccc(CN2CCN(C(=O)c3cccc4ccccc34)CC2)cc1,"inconclusive [cytotoxic, single point]",–
C#CCOC(=O)c1ccccc1C(=O)n1nnc2ccccc21,"inconclusive [cytotoxic, single point]",–
CCCCNc1c(-c2ccc(OC)c(SC3CCCCC3)c2)nc2cc(C)ccn12,"inconclusive [cytotoxic, single point]",–
COc1cc(/C=C2\CC/C(=C\c3cc(OC)c(O)c(OC)c3)C2=O)cc(OC)c1O,active: 4.11 µM,–
COc1ccc(Nc2cccc3ccccc23)cc1,inactive,–
O=C(COc1cccnc1[N+](=O)[O-])Nc1cccc(S(=O)(=O)N2CCOCC2)c1,inactive,–
Cn1cc(/C=N/n2cnc3scc(-c4ccc(Cl)cc4)c3c2=O)c2ccccc21,active: 0.461 µM,–
Cc1cc(SCNC(=O)c2ccccc2)ncn1,"inconclusive [cytotoxic, single point]",–
Cc1cccc(Nc2nnc(SCC(=O)c3ccc(Br)s3)s2)c1C,"inconclusive [cytotoxic, single point]",–
O=[N+]([O-])c1ccccc1C=NNC(=S)NN=Cc1ccccc1[N+](=O)[O-],"inconclusive [cytotoxic, partial curve]",–
Cc1cccc(N/N=C/c2ccncc2)c1,"inconclusive [cytotoxic, partial curve]",–
C#CCNC(=O)C[C@@H]1C[C@@]2(C(=O)OC)CC(C)(C)CC=C2N(CCCCCCCC)C1=O,"inconclusive [cytotoxic, single point]",–
COc1ccccc1NC(=S)NC12CN3CN(CN(C3)C1)C2,inactive,–
CCOc1cc(C(=O)Nc2ccccc2F)cc(Br)c1OCC,inactive,–
CC(=O)Nc1ccc(NC(=O)C(C)OC(=O)c2ccccc2C(=O)c2ccc(Cl)c([N+](=O)[O-])c2)cc1 (configuration not stated),"inconclusive [cytotoxic, single point]",–
COc1ccc(-c2c(-c3ccc(OC)c(C)c3O)n[nH]c2C)cc1,active: 18.4 µM,–
CCn1c(SCC(=O)N(C)c2ccccc2)nc2c([nH]c3ccccc32)c1=O,inactive,–
COC(=O)c1ccccc1NC(=O)N1CCN(Cc2ccco2)CC1,inactive,–
CCN(CC)C(=O)CSC1=C(C#N)C(c2ccco2)C(C(=O)OCCOC)=C(C)N1 (configuration not stated),inactive,–
